Structures can show the parent of a compound that is named as a salt. The list shows a part of the results. Many values rest on one well or one pass, so single values are uncertain.
Experiments:
[1] = test system: NCI-H460; assay: cell-surface PD-L1 MFI ratio relative to radiation alone (isotype-subtracted); higher = higher PD-L1 surface expression; details: inducer: radiation 8 Gy; 10 µM; 24 h
Protocol: (§1)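 A549 and H460 NSCLC cells were treated with each library drug at 10 uM, then with radiation (8 Gy) or cisplatin (4 uM), and incubated for 24 h. Cell-surface PD-L1 was measured by flow cytometry as an MFI ratio: (MFI drug+inducer - MFI isotype)/(MFI inducer alone - MFI isotype). Hits were defined as ratio < 0.75.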

[2] = test system: NCI-H460; assay: cell-surface PD-L1 MFI ratio relative to cisplatin alone (isotype-subtracted); higher = higher PD-L1 surface expression; details: inducer: cisplatin 4 uM; 10 µM; 24 h
Protocol: as §1
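Wherever cell-surface PD-L1 MFI ratio relative to radiation alone (isotype-subtracted) is given: surface PD-L1 on NSCLC cells stained with a PE-labelled anti-human PD-L1 antibody before flow cytometry, screening a library of roughly two hundred mostly kinase and epigenetic inhibitors.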

SMILES | cell-surface PD-L1 MFI ratio [1] | cell-surface PD-L1 MFI ratio [2]
NC1(c2ccc(-c3nc4ccn5c(=O)[nH]nc5c4cc3-c3ccccc3)cc2)CCC1 | inactive: 1.42 | inactive: 1.19
CC[C@@H]1C(=O)N(C)c2cnc(Nc3ccc(C(=O)N[C@H]4CC[C@H](N5CCN(CC6CC6)CC5)CC4)cc3OC)nc2N1C(C)C [Volasertib (BI 6727)] | inactive: 1.4 | inactive: 0.856
COc1ccc(-c2nc(-c3cc(C(F)(F)F)cc(C(F)(F)F)c3)n(Cc3ccc(C(N)=O)cc3)c2-c2ccc(OC)cc2)cc1 [Apoptozole] | inactive: 0.929 | active: 0.562
CC1(C)CCC(CN2CCN(c3ccc(C(=O)NS(=O)(=O)c4ccc(NCC5CCOCC5)c([N+](=O)[O-])c4)c(Oc4cnc5[nH]ccc5c4)c3)CC2)=C(c2ccc(Cl)cc2)C1 [Venetoclax (ABT-199, GDC-0199)] | inactive: 2.03 | inactive: 1.06
O=C(/C=C/c1ccc2ccc(C(F)(F)F)cc2n1)c1ccncc1 | inactive: 1.07 | inactive: 0.984
Clc1ccc(NN=C(c2ccccc2)c2ccccn2)nc1 | inactive: 1.03 | active: 0.567
CN1CCN(c2ccc(-c3cccc(CN4CCOCC4)c3)cc2NC(=O)c2c[nH]c(=O)cc2C(F)(F)F)CC1 | inactive: 1.02 | inactive: 0.976
CCCCCCCCCCCCCC(=S)NCCCC[C@H](NC(=O)OCc1ccccc1)C(=O)Nc1ccccc1 [Thiomyristoyl] | inactive: 1.07 | active: 0.523
Cc1cc(O)c(-c2ccc([C@@H](C)CN)cc2)c2c1[nH]c(=O)c1sccc12 [OTS514 hydrochloride] | active: 0.499 | inactive: 1.02
O=C(NC[C@H](O)CN1CCc2ccccc2C1)c1cc(NC2COC2)ncn1 | inactive: 1.02 | inactive: 0.92
CC(=O)c1c(C)c2cnc(Nc3ccc(N4CCNCC4)cn3)nc2n(C2CCCC2)c1=O | inactive: 0.863 | inactive: 1.16
CN(C(=O)c1ccc(F)cc1C(F)(F)F)C1CCN(c2nnc(-c3ccnn3C)c3ccccc23)CC1 | inactive: 1.38 | inactive: 1.14
COc1cc(Br)c(Nc2nc(-c3c(C)nc4ncccn34)cs2)c(Br)c1 | inactive: 1.04 | inactive: 0.766
COc1cc2nccc(Oc3ccc(NC(=O)C4(C(=O)Nc5ccc(F)cc5)CC4)cc3)c2cc1OC [Cabozantinib] | inactive: 1.21 | inactive: 1.06
Cc1ccccc1C(=O)N1CCc2cc(-c3nc(NC(=O)Cc4ccc5c(c4)OCO5)sc3C)ccc21 | inactive: 1.04 | inactive: 1.74
O=C(Nc1cccc2cccnc12)c1ccc(N2C(=O)[C@@H]3[C@H](C2=O)[C@@H]2C=C[C@H]3C2)cc1 [IWR-1-endo] | inactive: 1.38 | inactive: 1.06
CC[C@H](C)C(=O)O[C@H]1C[C@@H](C)C=C2C=C[C@H](C)[C@H](CC[C@@H]3C[C@@H](O)CC(=O)O3)[C@H]21 [Lovastatin] | inactive: 0.97 | inactive: 0.848
CC(C)(C)NC(=O)c1cncn1C1CCN(c2ccc(-c3nnc(C(F)(F)F)o3)cn2)CC1 | inactive: 1.82 | inactive: 1.08
Nc1ncn([C@H]2C[C@H](O)[C@@H](CO)O2)c(=O)n1 [Decitabine] | inactive: 1.25 | inactive: 1.19
Cc1nc(-c2cn3c(n2)-c2ccc(-c4cnn(C(C)(C)C(N)=O)c4)cc2OCC3)n(C(C)C)n1 [Taselisib (GDC 0032)] | active: 0.673 | inactive: 0.793
CC(C)[C@H]1C(=O)N[C@@H](CCCNC(=N)N)C(=O)NCC(=O)N[C@@H](CC(=O)O)C(=O)N[C@H](Cc2ccccc2)C(=O)N1C [Cilengitide trifluoroacetate] | inactive: 0.929 | active: 0.44
COc1cc2nc(N3CCCC3)nc(NCCCCCN3CCCC3)c2cc1OC | inactive: 1.35 | inactive: 1.46
CNc1nc(-c2ccc3c(N)n[nH]c3c2)cc(N2C[C@@H](C(=O)NC3CCCCC3)CC[C@H]2C)n1 | inactive: 0.833 | inactive: 1.25
CN1CCN(CCOc2cc(OC3CCOCC3)c3c(Nc4c(Cl)ccc5c4OCO5)ncnc3c2)CC1 [Saracatinib (AZD0530)] | inactive: 0.923 | active: 0.583
Cc1cn(CCN2CCN(c3ccccc3-c3cc(C#N)cc(C(=O)NCCCN4CCCC4)c3)CC2)c2ccccc12 | inactive: 1.48 | inactive: 1.74
CC(C)c1c(C(=O)Nc2ccccc2)c(-c2ccccc2)c(-c2ccc(F)cc2)n1CC[C@@H](O)C[C@@H](O)CC(=O)O [Atorvastatin] | inactive: 1.09 | inactive: 0.976
CN(C)C(=N)NC(=N)N [Metformin] | inactive: 1.36 | inactive: 1.14
C[C@@H]1COCCN1c1cc(C2([S@](C)(=N)=O)CC2)nc(-c2cc[nH]c3nccc2-3)n1 | inactive: 1.09 | inactive: 1.32
CS(=O)(=O)CCNCc1ccc(-c2ccc3ncnc(Nc4ccc(OCc5cccc(F)c5)c(Cl)c4)c3c2)o1 | inactive: 1.25 | inactive: 1.18

Source: the supplement of paper PMC8792480
